From a collection of fitness landscapes (doi:10.1126/science.1257360)
Some of the results follow.

B1: PhoQ; a variant is named by its letters at X, in order, P23837 (parent)
chain: MKKLLRLFFPLSLRVRFLLATAAVVLVLSLAYGMVALIGYSVSFDKTTFRLLRGESNLFYTLAKWENNKLHVELPENIDKQSPTMTLIYDENGQLLWAQRDVPWLMKMIQPDWLKSNGFHEIEADVNDTSLLLSGDHSIQQQLQEVREDDDDAEMTHSVAVNVYPATSRMPKLTIVVVDTIPVELKSSYMVWSWFIYVLSANLLLVIPLLWVAAWWSLRPIEALAKEVRELEEHNRELLNPATTRELTSLVRNLNRLLKSERERYDKYRTTLTDLTHSLKTPLXXLQXXLRSLRSEKMSVSDAEPVMLEQISRISQQIGYYLHRASMRGGTLLSRELHPVAPLLDNLTSALNKVYQRKGVNISLDISPEISFVGEQNDFVEVMGNVLDNACKYCLEFVEISARQTDEHLYIVVEDDGPGIPLSKREVIFDRGQRVDTLRPGQGVGLAVAREITEQYEGKIVAGESMLGGARMEVIFGRQHSAPKDE

Variants of: B1
Experiment: enrichment ratio after two sorts for PhoP signalling (ratio (wild type AVST 3.29)); higher = more functional
Conditions: with PhoP (E. coli)

Row | Variant | enrichment ratio
1 | TNKL | ≤ 0.25
2 | VRMN | ≤ 0.25
3 | ERTV | ≤ 0.25
4 | IRHH | ≤ 0.25
5 | AWFC | ≤ 0.25
6 | YYRF | ≤ 0.25
7 | AKRQ | ≤ 0.25
8 | IPVH | ≤ 0.25
9 | ITEC | ≤ 0.25
10 | PHVW | ≤ 0.25
11 | YQSS | ≤ 0.25
12 | IPNH | ≤ 0.25
13 | YWGG | ≤ 0.25
14 | AIQN | ≤ 0.25
15 | KDYI | ≤ 0.25
16 | ERST | ≤ 0.25
17 | DSQN | ≤ 0.25
18 | GYAD | 3.06
19 | RCRE | ≤ 0.25
20 | FFLY | 0.427
21 | SEMG | 21.5
22 | LTML | 3.18
23 | DIDL | ≤ 0.25
24 | FWMD | ≤ 0.25
25 | RAFM | ≤ 0.25

Row | Variant | enrichment ratio
26 | PNRS | ≤ 0.25
27 | HTLM | 10.1
28 | SIDQ | ≤ 0.25
29 | FNFV | ≤ 0.25
30 | IYFS | ≤ 0.25
31 | KVWP | ≤ 0.25
32 | CVPP | ≤ 0.25
33 | SHWI | ≤ 0.25
34 | GETT | 16.2
35 | YYGD | ≤ 0.25
36 | NHCF | ≤ 0.25
37 | PTND | ≤ 0.25
38 | KVDL | ≤ 0.25
39 | QLDM | ≤ 0.25
40 | KMRF | ≤ 0.25
41 | VCPF | ≤ 0.25
42 | VRGC | ≤ 0.25
43 | GVRY | ≤ 0.25
44 | FKGS | ≤ 0.25
45 | VCMG | 10.3
46 | DKLY | ≤ 0.25
47 | KMMF | ≤ 0.25
48 | AYTE | ≤ 0.25
49 | FTPL | ≤ 0.25
50 | VYGM | ≤ 0.25

Row | Variant | enrichment ratio
51 | IDLN | ≤ 0.25
52 | HKDS | ≤ 0.25
53 | FMVD | ≤ 0.25
54 | YDQC | ≤ 0.25
55 | QSQN | ≤ 0.25
56 | VTRF | ≤ 0.25
57 | ICDV | ≤ 0.25
58 | VAKG | ≤ 0.25
59 | LTFE | 0.578
60 | ITAN | ≤ 0.25
61 | WKPN | ≤ 0.25
62 | WNHK | ≤ 0.25
63 | LMKD | ≤ 0.25
64 | FNET | ≤ 0.25
65 | YYCI | ≤ 0.25
66 | YCCL | 2.44
67 | ERSP | ≤ 0.25
68 | LERI | ≤ 0.25
69 | NWNS | ≤ 0.25
70 | EFLK | ≤ 0.25
71 | SVHS | ≤ 0.25
72 | LIRK | ≤ 0.25
73 | KEKS | ≤ 0.25
74 | ERMH | ≤ 0.25
75 | ALAQ | 5.48

Row | Variant | enrichment ratio
76 | KRMQ | ≤ 0.25
77 | HLTI | ≤ 0.25
78 | KQVN | ≤ 0.25
79 | MEWP | ≤ 0.25
80 | PPFQ | ≤ 0.25
81 | YDHM | ≤ 0.25
82 | TIIQ | ≤ 0.25
83 | MLVL | 2.67
84 | NMFP | ≤ 0.25
85 | YIFK | ≤ 0.25
86 | NIFQ | ≤ 0.25
87 | HDNR | ≤ 0.25
88 | DQAV | ≤ 0.25
89 | AGVI | 3.57
90 | KLKP | ≤ 0.25
91 | PERG | ≤ 0.25
92 | WPQV | ≤ 0.25
93 | KNGH | ≤ 0.25
94 | FPCM | ≤ 0.25
95 | HKAR | ≤ 0.25
96 | THID | ≤ 0.25
97 | DFEK | ≤ 0.25
